In the supplement of paper PMC11417369:
± gives the standard deviation of the averaged measurements. The list shows a part of the results.

system: PfAP2-EXP AP2 domain (GST-tagged); test: gcPBM binding intensity (ln(normalized median fluorescence intensity)); higher = stronger DNA binding
How it was run: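 GST-tagged P. falciparum DNA-binding domains produced in E. coli were incubated for 1 h on an Agilent 4 × 180k array of primer-extended double-stranded 36-bp intergenic genomic probes with negative controls. Binding intensity is the highest Masliner-normalised natural-log median intensity across replicate spots of either probe orientation, with bound protein detected by Alexa488 anti-GST antibody at 488 nm.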

Sequence | gcPBM binding intensity (ln)
AATGGGTTAGCACATACACACCAATATATTATATAT [CACACA_site9011] | 8.57 ± 0.38
TATATATGTATATATGGTACAGAATATTCTACATTA [XGTACX_site5077] | 8.53 ± 0.33
CAATCATTTTATTGTTGTACAGTAATTATGAATTCA [XGTACX_site7508] | 8.4 ± 0.29
CATCCACATATATGTACACACATATATATATATATA [CACACA_site2964] | 10.1 ± 0.52
TACCACATCGGTAAATGTACTTATAAAAAAAAAAAA [XGTACX_site3364] | 8.07 ± 0.42
TTGGTACCTATAGATACACACATATATACATATATA [CACACA_site3402] | 8.46 ± 0.33
TAAGAGTAGTTATATACACACATGTATATTATAGTT [CACACA_site6815] | 8.27 ± 0.4
TATATATATATATTATGTACGTATCAGTTTGTATGT [XGTACX_site695] | 9.85 ± 0.3
ATTTTTAATATTATTACACACACTAAAAAAAAAAAA [CACACA_site1067] | 8.39 ± 0.52
CACGACATTAACAATACATGCAGAAAAACAAAAAAT [TGCATGCA_site689] | 9.39 ± 0.32
TTATAAATTAGAGGTACACACAAAAAAAAAAAGAAA [CACACA_site6740] | 8.71 ± 0.47
TATAAGAGAAGAAGAAAAAAAAGGTTTCTATAGAAA [XGTACX_negctrl_site421] | 8.76 ± 0.52
AAGAAGCATAAATGTACACACATATTTATATATTAA [CACACA_site1332] | 8.37 ± 0.32
CATATAGTAATATATACACACACTTGTCTTGTAAAA [CACACA_site8238] | 8.36 ± 0.49
ATATTTATAATTTTTTGTACACATTTTTTAAAGATA [XGTACX_site1784] | 8.65 ± 0.38
AAATGGAAAAGGTGTACACAAAAAAAAGGGAAAAGC [CACACA_site5331] | 9.39 ± 0.35
TACATATAAATATATAAATATAAATAAATAAATAAA [XGTACX_negctrl_site180] | 8.5 ± 0.24
TTTTTTTTTTTTTTTGCACACACATTGAATTATTAT [CACACA_site198] | 8.45 ± 0.47
CTTTATATATAGTGTACACATTAAACAAATCTCAAT [CACACA_site5845] | 8.7 ± 0.3

Sequence | gcPBM binding intensity (ln)
TTACCAAAAACCTCAAGTACAAAAAATCCCTAATAT [XGTACX_site2313] | 8.49 ± 0.53
ATAGTATACAGACACACACACACACGGATATAAATA [CACACA_site6914] | 8.89 ± 0.49
AAGTTTAAGAAATAATTCATATTTACTTCCATCCTC [GTGCAC_negctrl_site494] | 8.23 ± 0.39
ATATATATATATATATGTACTAAATATTCATCCTTA [XGTACX_site6039] | 10.2 ± 0.3
TATGTAAAAACAGGCACACATATATCATATATATAT [CACACA_site619] | 9.525 ± 0.035
TATGTATGCCTGTTTTGTACTTAAGAAAATGTTGCT [XGTACX_site8443] | 8.59 ± 0.38
AAAAAAAAAAAAAAAAGTACATAATATAAAATCTAA [XGTACX_site6019] | 8.48 ± 0.4
TATAAATATATATGTACACACATATACATGTTGAAT [CACACA_site3118] | 8.41 ± 0.26
TATAAACATAAATATACACACAAACATCTATGTATT [CACACA_site4804] | 8.32 ± 0.42
AAAAAAAAATATCACACACACATAAATATAAACCAA [CACACA_site2279] | 8.71 ± 0.48
AGGCACTTATAATAATGTACATAAATAAAAAGAAAA [XGTACX_site6037] | 8.81 ± 0.35
ATTGGGTTCATCAGCACACACAACATCATGTAATAA [CACACA_site5093] | 8.46 ± 0.53
AGAGCATAATAAAACACACACATACATACATATATA [CACACA_site935] | 8.57 ± 0.55
AAAAAAAAAAAAACTACACACATAAAATATATTGTG [CACACA_site805] | 8.19 ± 0.38
TAAAACATCAAGGGGTGTACAAAAAAGATGAACAGG [XGTACX_site6929] | 9.1 ± 0.46
AAAAAAATAACAAAGTGTACTTTTATATTTTACATA [XGTACX_site8954] | 8.13 ± 0.25
TTCTGCAGCAATGTTTTTTTTAAATATTTATATGGT [CACACA_negctrl_site1815] | 8.76 ± 0.56
ACCCATTTTAATTTAGTGCACATTTTACCTTTATAC | 9.19 ± 0.26
GCTAGTTTTTTTTGGCGTACAGTACCGGTTTACTTT [XGTACX_site2606] | 9.1 ± 0.37

Sequence | gcPBM binding intensity (ln)
TTTTTTTCTTTTTCAAAAAAAAAAAAAAAAAAAATA [GTGCAC_negctrl_site329] | 7.82 ± 0.5
CATACCATACATAAAACACACAAAATTTACATAATA [CACACA_site3100] | 8.73 ± 0.42
TATAGTTTTATTATTTATGTGTTAAAATTATACAAG [TGCATGCA_negctrl_site246] | 8.26 ± 0.53
TTCCTCTTAATATGTGCACACTAAATTATAACATAA [CACACA_site3260] | 8.86 ± 0.22
AAAAAAAAAAAAAAATGTACATATTAAGTATAATTA [XGTACX_site4616] | 8.38 ± 0.26
CAATTTGGTGTACAGGTGCACATGCCTCACGATAAA [GTGCAC_site9650] | 9.38 ± 0.28
GAAAAATGTAAATACATATATGTACACAAATATATA [GTGCAC_negctrl_site557] | 8.65 ± 0.37
TTAGCTCAATTTTTGGGTACACACAAATGTATAATA [XGTACX_site5003] | 8.53 ± 0.3
TTTAATTCCATAAGTAAACACACAAATGCCAAAATT [CACACA_site9049] | 8.8 ± 0.42
AATATTTATAAATTTACACACACACGGGTGAACATA [CACACA_site6979] | 8.69 ± 0.4
ATTCTAAATTAAAATACACACATATATACATAATAT [CACACA_site2792] | 8.34 ± 0.51
TTTTAAGGTGTGAAGGTGCAAAAAGGTAAATAGGAA | 9.705 ± 0.021
AAAATACATAAACACACACACACACCGATATATATA [CACACA_site9186] | 8.84 ± 0.5
CACAAACACCCAAACACACACACACCGACATACATA [CACACA_site4410] | 8.41 ± 0.54
TAAACAGAAGCACATACACACACTCAAAAAAAAAAA [CACACA_site3051] | 8.56 ± 0.6
AAAAAAAAAAAAGGCACACAAACATATGTAGACATA [CACACA_site2284] | 8.64 ± 0.61
TCGTGTGTAATATTATATATATATATATAATATATA [TGCATGCA_negctrl_site289] | 8.74 ± 0.26
TTCTTTTATAAAAGTAGTACAATTATATTGTAATTA [XGTACX_site2855] | 8.29 ± 0.26
TCTTTTATATTGTAGAGTACATATTTTCAATATATA [XGTACX_site5586] | 8.36 ± 0.23
